# Measurements from the supplement of paper PMC4967469.
# Assays:
# Test in all cases: Viability of human cancer cell lines after 72 h of drug (GDSC screen)
# (5Z)-7-Oxozeaenol = compound: COc1cc(O)c2c(c1)/C=C/C[C@H](O)[C@H](O)C(=O)/C=C\C[C@H](C)OC2=O [(5Z)-7-Oxozeaenol]; conditions: top dose 10 µM; top dose inferred
# Experimental: (§1)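 Human cancer cell lines in 384-well plates, medium with 10% serum, drug for 72 h over a 256-fold dose range (nine 2-fold or five 4-fold steps up to the top dose). Adherent lines were fixed and stained with the nucleic acid dye Syto60, suspension lines read with resazurin; signal relative to control wells, capped at 0 and 100%. One two-parameter sigmoid per drug and line, fitted in a mixed model over all curves with the slope shared within a line.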
# CHIR-99021 = compound: Cc1cnc(-c2cnc(NCCNc3ccc(C#N)cn3)nc2-c2ccc(Cl)cc2Cl)[nH]1 [CHIR-99021]
# Experimental: as §1
# ABT-888 = compound: C[C@]1(c2nc3c(C(N)=O)cccc3[nH]2)CCCN1 [ABT-888]; conditions: top dose 5 µM; top dose inferred
# Experimental: as §1
# GSK269962A = compound: CCn1c(-c2nonc2N)nc2cnc(Oc3cccc(NC(=O)c4ccc(OCCN5CCOCC5)cc4)c3)cc21 [GSK269962A]; conditions: top dose 5 µM; screen: GDSC drug entry 1192; top dose inferred
# Experimental: as §1
# MPS-1-IN-1 = compound: COc1cc(N2CCC(O)CC2)ccc1Nc1cc(Nc2ccccc2S(=O)(=O)C(C)C)c2cc[nH]c2n1 [MPS-1-IN-1]; conditions: top dose 20 µM; top dose inferred
# Experimental: as §1
# Zibotentan = compound: COc1nc(C)cnc1NS(=O)(=O)c1cccnc1-c1ccc(-c2nnco2)cc1 [Zibotentan]; conditions: top dose 20 µM; top dose inferred
# Experimental: as §1
# CP466722 = compound: COc1cc2ncnc(-n3nc(-c4ccccn4)nc3N)c2cc1OC [CP466722]; conditions: top dose 16 µM; top dose inferred
# Experimental: as §1
# ABT-869 = compound: Cc1ccc(F)c(NC(=O)Nc2ccc(-c3cccc4[nH]nc(N)c34)cc2)c1 [ABT-869]; conditions: top dose 1.024 µM; top dose inferred
# Experimental: as §1
# QL-X-138 = compound: C=CC(=O)Nc1cc(-n2c(=O)ccc3cnc4ccc(-c5cn[nH]c5)cc4c32)ccc1C [QL-X-138]; conditions: top dose 10.24 µM; top dose inferred
# Experimental: as §1
# Thapsigargin = compound: C/C=C(/C)C(=O)O[C@H]1C(C)=C2[C@H]([C@@H]1OC(=O)CCCCCCC)[C@@](C)(OC(C)=O)C[C@H](OC(=O)CCC)[C@@]1(O)[C@H]2OC(=O)[C@@]1(C)O [Thapsigargin]; conditions: top dose 0.512 µM; top dose inferred
# Experimental: as §1
# KU-55933 = compound: O=c1cc(-c2cccc3c2Sc2ccccc2S3)oc(N2CCOCC2)c1 [KU-55933]; conditions: top dose 10 µM
# Experimental: as §1
# [1] = top dose 2.56 µM, screen: GDSC drug entry 154
# [2] = top dose 10 µM, screen: GDSC drug entry 1241, top dose inferred
Cell Line,AUC ((5Z)-7-Oxozeaenol),IC50 ((5Z)-7-Oxozeaenol) [µM],AUC (CHIR-99021; [1]),IC50 (CHIR-99021; [1]) [µM],AUC (CHIR-99021; [2]),IC50 (CHIR-99021; [2]) [µM],AUC (ABT-888),IC50 (ABT-888) [µM],AUC (GSK269962A),IC50 (GSK269962A) [µM],AUC (MPS-1-IN-1),IC50 (MPS-1-IN-1) [µM],AUC (Zibotentan),IC50 (Zibotentan) [µM],AUC (CP466722),IC50 (CP466722) [µM],AUC (ABT-869),IC50 (ABT-869) [µM],AUC (QL-X-138),IC50 (QL-X-138) [µM],AUC (Thapsigargin),IC50 (Thapsigargin) [µM],AUC (KU-55933),IC50 (KU-55933) [µM]
"CAKI-1 (kidney, adherent)",0.672,2.41,0.899,> 2.56,0.973,> 10,0.945,> 5,0.809,4.42,0.957,> 20,0.972,> 20,0.699,4.85,0.961,> 1.02,0.811,9.21,0.631,0.0885,,
"FLO-1 (oesophagus, adherent)",0.669,2.29,,,0.837,> 10,0.976,> 5,0.937,> 5,0.934,> 20,0.972,> 20,0.7,4.75,0.967,> 1.02,0.745,4.52,,,0.932,> 10
"G-MEL (melanoma, adherent)",0.059,< 0.0391,0.986,> 2.56,0.899,> 10,0.933,> 5,0.813,2.65,0.94,> 20,0.986,> 20,0.826,9.51,0.984,> 1.02,0.582,1.07,0.535,0.0399,,
"HMV-II (melanoma, adherent)",0.336,0.197,0.913,> 2.56,0.926,> 10,0.973,> 5,0.901,> 5,0.894,> 20,0.978,> 20,0.979,> 16,0.974,> 1.02,0.728,3.35,0.279,0.00646,,
"HOP-92 (large cell lung carcinoma, adherent)",0.487,0.572,0.971,> 2.56,0.925,> 10,0.978,> 5,0.663,0.961,0.984,> 20,0.984,> 20,0.95,> 16,0.98,> 1.02,0.984,> 10.2,0.207,0.00372,,
"HSC-4 (head and neck, adherent)",0.498,0.617,0.979,> 2.56,0.927,> 10,0.967,> 5,0.803,3.51,0.968,> 20,0.979,> 20,0.896,> 16,0.977,> 1.02,0.757,4.65,0.755,0.228,,
"HeLa (cervix, adherent)",0.644,1.53,0.968,> 2.56,0.988,> 10,0.977,> 5,0.791,2.13,0.957,> 20,0.989,> 20,0.902,> 16,0.982,> 1.02,0.952,> 10.2,0.214,0.00487,,
"Hs-578-T (breast, adherent)",0.727,2.9,0.977,> 2.56,0.881,> 10,0.987,> 5,0.856,4.43,0.987,> 20,0.987,> 20,0.987,> 16,0.987,> 1.02,0.952,> 10.2,,,0.895,> 10
"IGROV-1 (ovary, adherent)",0.718,3.51,,,0.944,> 10,0.976,> 5,0.896,> 5,,,,,,,,,,,,,0.942,> 10
"JEKO-1 (B-cell lymphoma, suspension)",0.581,1.03,,,0.833,6.07,0.975,> 5,0.698,1.09,,,,,,,,,,,,,0.741,2.94
"JHOS-2 (ovary, adherent)",0.54,0.818,,,0.869,> 10,0.971,> 5,0.954,> 5,0.931,> 20,0.983,> 20,0.768,6.94,0.983,> 1.02,0.858,> 10.2,,,0.878,> 10
"KARPAS-1106P (B-cell lymphoma, suspension)",0.857,5.96,,,0.993,> 10,0.992,> 5,0.989,> 5,,,,,,,,,,,,,0.953,> 10
"MOLM-16 (acute myeloid leukaemia, suspension)",0.592,1.08,,,0.809,4.46,0.961,> 5,0.769,1.67,,,,,,,,,,,,,0.843,5.85
"NCI-H292 (lung adenocarcinoma, adherent)",0.512,0.678,0.978,> 2.56,0.95,> 10,0.975,> 5,0.635,0.802,0.705,5.42,0.975,> 20,0.771,7.49,0.977,> 1.02,0.978,> 10.2,0.387,0.0146,,
"NCI-H441 (lung adenocarcinoma, adherent)",0.771,5.48,0.971,> 2.56,0.975,> 10,0.981,> 5,0.954,> 5,0.978,> 20,0.979,> 20,0.957,> 16,0.98,> 1.02,0.964,> 10.2,0.324,0.00838,,
"NCI-H929 (myeloma, suspension)",0.45,0.466,,,0.903,9.77,0.973,> 5,0.916,> 5,,,,,,,,,,,,,0.903,9.77
"OV-56 (ovary, adherent)",0.681,1.95,,,0.926,> 10,0.988,> 5,0.973,> 5,0.946,> 20,0.989,> 20,0.843,10.7,0.988,> 1.02,0.853,7.53,,,0.959,> 10
"OVCA433 (ovary, adherent)",0.388,0.296,,,0.878,> 10,0.985,> 5,0.668,0.975,0.971,> 20,0.981,> 20,0.915,> 16,0.976,> 1.02,0.815,6.45,,,0.951,> 10
"RCC-ER (kidney, adherent)",0.791,5.08,,,0.704,2.53,0.986,> 5,0.974,> 5,0.981,> 20,0.985,> 20,0.832,12,0.98,> 1.02,0.879,> 10.2,,,0.922,> 10
"RCC-JF (kidney, adherent)",0.586,1.11,,,0.893,> 10,0.962,> 5,0.363,0.124,0.895,> 20,0.983,> 20,0.714,4.38,0.977,> 1.02,0.459,0.488,,,0.923,> 10
"RCC-MF (kidney, adherent)",0.76,4.51,,,0.886,> 10,0.965,> 5,0.827,4.35,0.903,> 20,0.973,> 20,0.711,4.78,0.969,> 1.02,0.381,0.273,,,0.92,> 10
"SK-GT-4 (oesophagus, adherent)",0.768,4.64,,,0.914,> 10,0.964,> 5,0.941,> 5,0.856,> 20,0.98,> 20,0.851,> 16,0.974,> 1.02,0.678,2.28,,,0.957,> 10
"SK-MEL-24 (melanoma, adherent)",0.366,0.246,0.983,> 2.56,0.911,> 10,0.977,> 5,0.882,> 5,0.803,12.6,0.98,> 20,0.98,> 16,0.983,> 1.02,0.983,> 10.2,0.95,> 0.512,,
"U251 (glioma, adherent)",0.698,2.19,0.987,> 2.56,0.985,> 10,0.986,> 5,0.906,> 5,0.848,13.9,0.982,> 20,0.788,6.69,0.983,> 1.02,0.594,1.14,0.229,0.00548,,
"UM-UC-3 (bladder, adherent)",0.61,1.23,0.981,> 2.56,0.934,> 10,0.988,> 5,0.885,4.87,0.797,8.8,0.977,> 20,0.75,4.95,0.985,> 1.02,0.713,2.44,0.214,0.00496,,

# IC50 is the fitted dose that halves viability relative to control wells, and lower means more sensitive; where the fit passes the top or lowest dose, that dose stands as a limit. The AUC spans the tested range (256-fold, ending at the top dose) of the same fit; values near 1 show little effect. For part of these data: A top dose marked as inferred comes from the curve model; the source does not state it. For part of these data: An entry number marks a drug with two screens in the source, which often give different values.
